The whole screen tested about 310,000 compounds, of which about 14,000 (4.5%) showed an effect of 50% or more. The effect is printed as a negative number. Some of the results follow.
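Also: peak tail current of the secondary pulse compared with the same well before compound.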

In this experiment the target is human ether-à-go-go-related gene (hERG) potassium channel (human, UniProt Q12809). Put plainly: primary screen, population patch clamp on CHO cells stably expressing hERG.
Chain of human ether-à-go-go-related gene (hERG) potassium channel (Q12809 whole entry, looked up): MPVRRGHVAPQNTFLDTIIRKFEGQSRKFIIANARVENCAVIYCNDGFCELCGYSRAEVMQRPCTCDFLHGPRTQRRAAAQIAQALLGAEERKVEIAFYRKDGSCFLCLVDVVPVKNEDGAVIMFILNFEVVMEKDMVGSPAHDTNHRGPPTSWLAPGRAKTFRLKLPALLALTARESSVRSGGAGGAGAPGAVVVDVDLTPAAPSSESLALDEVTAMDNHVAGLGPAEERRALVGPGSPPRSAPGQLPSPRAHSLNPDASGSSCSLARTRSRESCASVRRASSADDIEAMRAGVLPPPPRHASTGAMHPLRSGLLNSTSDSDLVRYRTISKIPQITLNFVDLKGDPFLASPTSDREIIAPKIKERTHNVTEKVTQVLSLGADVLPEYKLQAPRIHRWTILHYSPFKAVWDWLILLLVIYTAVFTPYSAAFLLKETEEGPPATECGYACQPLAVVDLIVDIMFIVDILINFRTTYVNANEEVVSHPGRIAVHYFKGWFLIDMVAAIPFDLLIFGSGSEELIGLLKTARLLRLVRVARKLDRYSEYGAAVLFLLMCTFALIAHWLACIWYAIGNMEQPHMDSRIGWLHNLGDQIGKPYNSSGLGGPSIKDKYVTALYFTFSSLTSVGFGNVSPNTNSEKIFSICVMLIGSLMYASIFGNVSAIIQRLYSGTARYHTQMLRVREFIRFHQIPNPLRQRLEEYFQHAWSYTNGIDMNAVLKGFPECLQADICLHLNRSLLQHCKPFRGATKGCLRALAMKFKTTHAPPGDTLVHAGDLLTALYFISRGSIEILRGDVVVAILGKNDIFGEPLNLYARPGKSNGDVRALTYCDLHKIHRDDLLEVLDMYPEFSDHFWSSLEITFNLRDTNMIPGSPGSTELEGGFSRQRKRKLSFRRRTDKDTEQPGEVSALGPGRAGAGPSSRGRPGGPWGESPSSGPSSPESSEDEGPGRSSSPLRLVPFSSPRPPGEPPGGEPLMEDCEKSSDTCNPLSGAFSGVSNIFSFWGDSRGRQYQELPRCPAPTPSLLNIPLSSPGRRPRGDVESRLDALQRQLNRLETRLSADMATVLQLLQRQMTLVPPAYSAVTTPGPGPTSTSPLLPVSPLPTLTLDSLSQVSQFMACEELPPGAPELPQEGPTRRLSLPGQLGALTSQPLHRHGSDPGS
Take `Cc1ccccc1C(=O)NCC(=O)OC(C)C(=O)Nc1cccc(S(=O)(=O)N2CCOCC2)c1` (centres unmarked): the “hERG current change (%, negative = inhibition) at 10uM” value is recorded as -0.584%.
`CC(=O)C1=C(C)N(Cc2ccccc2)C(=O)N[C@H]1CCc1ccccc1`: the “hERG current change (%, negative = inhibition) at 10uM” value is reported as -15.8%.
Consider `O=C(N/C(=C/c1cccnc1)C(=O)N1CCOCC1)c1ccccc1`, for which the “hERG current change (%, negative = inhibition) at 10uM” value was -5.27%.
Regarding `CCCCC(=O)Nc1c2c(nn1-c1cccc(C)c1C)CS(=O)(=O)C2`, the “hERG current change (%, negative = inhibition) at 10uM” value is on record as -0.869%.
The value for `O=C(/C=C/c1cccs1)N1CCN(c2ccccc2)CC1` was 1.88%.
The value for `COc1ccc(C2(C(=O)O)CCCC2)cc1` was 10.4%; that for `COc1cc2oc3ccc(C#Cc4ccccn4)cc3c(=O)c2cc1OC` was 6.07%.
The value for `O=C(COc1ccc(F)cc1Br)N1CCc2ccccc21` was 19.9%; that for `CCCCSc1cc(=O)[nH]c(N)n1` was 22%; that for `COc1ccc(OCc2cc(C(=O)NC3Cc4ccccc4C3)no2)c(Cl)c1` was 7.73%.
Regarding `Cc1nc2c3cc(F)ccc3n(Cc3ccccc3F)c2s1`, the “hERG current change (%, negative = inhibition) at 10uM” value is -5.77%.
With `O=C(Nc1cccn(Cc2c(Cl)cccc2Cl)c1=O)c1ccc(Cl)cc1Cl` the figure was 4.9%; with `CCOC(=O)Cc1csc(NC(=O)/C=C/c2ccc(Cl)cc2)n1`, -9.29%.
On to `CCN(CC(=O)Nc1ccc(NC(C)=O)cc1)C(=O)CSCC(=O)Nc1ccc(C)cc1`, for which the “hERG current change (%, negative = inhibition) at 10uM” value came out at 2.95%.
With `CC(C)Cc1nnc(NC(=O)CCC(=O)N2CCN(CCOC(c3ccccc3)c3ccccc3)CC2)s1` the figure was -32.4%.
Consider `CC(C)c1ccc(S(=O)(=O)NC2CCS(=O)(=O)C2)cc1` (centres unmarked), for which the “hERG current change (%, negative = inhibition) at 10uM” value turned out to be 6.1%.
On to `CCc1ccc(C(=O)COC(=O)CNC(=O)Cc2ccccc2)cc1`, for which the “hERG current change (%, negative = inhibition) at 10uM” value is reported as 0.382%.
For `CCSc1nc2sccc2c(=O)n1-c1ccccc1`, the “hERG current change (%, negative = inhibition) at 10uM” value amounted to 6.35%.
The value for `CCNc1ccccc(C(=O)/C=C/c2ccc3c(c2)OCO3)c1=O` was -17.7%; that for `COc1ccc(CCC(=O)c2ccc(OC)cc2)cc1` was -1.41%.
With `CCC(=O)N1CCN(c2ccc(NC(=O)COc3ccc(C)cc3C)cc2)CC1` the figure was -0.478%; with `CCCN1C(=O)/C(=C/c2ccncc2)SC1=S`, 0.555%; with `CC1(OC(=O)c2cccs2)C(=O)C=C2C=C(c3ccsc3)OC=C2C1=O` (centres unmarked), -0.0759%.
Take `COc1ccc(S(=O)(=O)N2CCC(C(=O)Nc3c(F)cccc3F)CC2)cc1`: the “hERG current change (%, negative = inhibition) at 10uM” value came to 19%.
The value for `COc1cc(OC)cc(C(=O)N2CCN(Cc3ccccc3Br)CC2)c1` was 2.14%; that for `CC(C)Oc1ccc(N2CC(C(=O)Nc3ccccc3C(=O)NC3CC3)CC2=O)cc1` (centres unmarked) was -66.2%; that for `CCn1c(COc2ccccc2)nnc1SCC(=O)CC(=O)Nc1ccccc1OC` was -29.1%.
The value for `O=C(O)c1ccc(/C=N/n2cc(-c3ccccc3)[nH]c2=S)cc1` was 10.3%; that for `O=C1Nc2ccc([N+](=O)[O-])cc2C1(O)N1CCCCC1` (centres unmarked) was -9.53%; that for `COc1ccccc1OCCOCCOc1ccccc1Cl` was -5.82%.
With `COc1cccc(O)c1CN1CCC(Oc2ccc(C(=O)NCc3ccccn3)cc2)CC1`, the “hERG current change (%, negative = inhibition) at 10uM” value is recorded as -11.3%.
The value for `O=C(N/N=C/C=C\c1ccco1)c1cccnc1` was 8.4%; that for `Cc1ccc2oc(=O)c3cc(C(=O)NCCCN4CC(C)CC(C)C4)sc3c2c1` (centres unmarked) was -49.2%.
With `Cn1c(SCC(=O)NC(=O)NCc2ccco2)nnc1C(F)(F)F` the figure was 3.13%; with `Oc1ccc(N2CCN(Cc3nc4ccccc4[nH]3)CC2)cc1`, -2.93%.
On to `CCc1c(O)nc(SCC(=O)Nc2ccc(OC)cc2)n(C2CCCCC2)c1=O`, for which the “hERG current change (%, negative = inhibition) at 10uM” value was -7.61%.
`COc1cccc(OCc2cc(C(=O)N(C)C3CCOCC3)no2)c1`: the “hERG current change (%, negative = inhibition) at 10uM” value was 5.52%.
With `O=C(CCCCC(=O)NCCCc1ccccc1)NCCCc1ccccc1` the figure was 14.1%.
Turning to `COc1ccccc1-c1ocnc1C(=O)N1CCN(C(=O)C(c2ccccc2)c2ccccc2)CC1`, the “hERG current change (%, negative = inhibition) at 10uM” value was -44.9%.
Turning to `O=C(CNC(=O)C1CCCCC1)OCc1cc(=O)oc2ccc3ccccc3c12`, the “hERG current change (%, negative = inhibition) at 10uM” value is -4.88%.
Take `C/C(=N/NC(=O)c1cc(C)[nH]n1)c1ccco1`: the “hERG current change (%, negative = inhibition) at 10uM” value stood at 11.5%.
The value for `COc1ccc(NC(=O)c2cccc(OC(=S)N3CCOCC3)c2)cc1` was -11.2%; that for `CCCCOc1cccc(C(=O)N(Cc2ccccc2)C2CCS(=O)(=O)C2)c1` (centres unmarked) was -14.2%; that for `Cc1sc2nc(SCC(=O)NCCO)n(-c3ccccc3)c(=O)c2c1C` was -4.79%.
In the case of `Cc1ccc(OCCn2cc(C=O)c3ccccc32)cc1`, the “hERG current change (%, negative = inhibition) at 10uM” value turned out to be 10.5%.
With `COc1ccc(S(=O)(=O)Nc2ccc3c(c2)n(C)c(=O)n3C)cc1C` the figure was 2.39%.
With `O=C(CN(Cc1cccs1)C(=O)CNS(=O)(=O)c1ccc(F)cc1)NCC1CCCO1` (centres unmarked) the figure was 11.8%; with `Cc1cc2n(n1)C(c1ccco1)Nc1ccccc1-2` (centres unmarked), -4.14%.
As to `NC(=O)CC(NC(=O)Cc1cccc2ccccc12)c1ccc(NCCOc2ccccc2)c([N+](=O)[O-])c1` (centres unmarked), the “hERG current change (%, negative = inhibition) at 10uM” value is listed as 10.4%.
As to `CC1CCCCN1C(=O)CN1C(=O)CSc2ccc(S(=O)(=O)N3CCOCC3)cc21` (centres unmarked), the “hERG current change (%, negative = inhibition) at 10uM” value is 5.4%.
With `CCC(=O)Nc1ccc(C(=O)OCc2ccc(Cl)c(Cl)c2)cc1` the figure was 0.0963%; with `CCOc1cccc(-c2c(C(=O)N/N=C/c3cccnc3)nnn2-c2nonc2N)c1`, -54%.
With `COC(=O)Nc1nnc(Cc2ccc(OC)cc2)s1` the figure was 10.3%.
With `O=C(CNC(=O)c1ccc(Cl)cc1)NCCCn1ccnc1` the figure was 11.3%; with `CCCNC(=O)CN(CCc1ccccc1)S(C)(=O)=O`, 8.94%.
In the case of `CCCS(=O)(=O)c1snnc1C`, the “hERG current change (%, negative = inhibition) at 10uM” value was 14.8%.
The value for `Cc1ccccc1N(CC(=O)N1CCCC1)S(=O)(=O)c1ccc(Cl)cc1` was -26.3%; that for `CC1=C(C(N)=O)C(c2ccc3c(c2)OCO3)n2nc(-c3cccc(C)c3)nc2N1` (centres unmarked) was -7.33%; that for `COc1ccc(-c2csc(Nc3ccccn3)n2)cc1OC` was 3.24%.
The value for `COc1cc(C(=O)OCC(=O)N(C)c2ccccc2)cc(OC)c1OC` was -3.14%.
With `COCc1nnc(NC(=O)c2ccc(S(=O)(=O)N3CCCC3)cc2)o1` the figure was 7.08%; with `CN(C)S(=O)(=O)c1ccc(C(=O)NCC(=O)Nc2ccc(F)c(F)c2)cc1`, 4.94%; with `COc1ccc(Br)cc1CNC(=O)C1CCN(S(=O)(=O)N2CCCCC2)CC1`, -15.7%.
With `Nc1ccc(S(=O)(=O)Nc2nccc(/C=C/c3ccc(Cl)cc3Cl)n2)cc1`, the “hERG current change (%, negative = inhibition) at 10uM” value is 3.71%.
With `COc1ccc2[nH]cc(CCNC(=O)Cc3c(F)cccc3Cl)c2c1` the figure was 4.63%.
Consider `Cc1cc(C)c2c(=O)c(/C=C3\NC(=S)NC3=O)coc2c1`, for which the “hERG current change (%, negative = inhibition) at 10uM” value stood at 26.6%.
On to `CCOC(=O)/C=C1\SCC(=O)N1CC(=O)NCCc1ccc(F)cc1`, for which the “hERG current change (%, negative = inhibition) at 10uM” value was -18.7%.
With `CCOC(=O)c1ccc(Oc2nc(OC)nc(N(C)C)n2)cc1`, the “hERG current change (%, negative = inhibition) at 10uM” value is recorded as 6.27%.
With `O=c1c(-c2ccc(Oc3ccccc3)cc2)[n+]([O-])c2ccccc2n1OCc1ccccn1` the figure was -14.7%.
For `Cc1ccc(S(=O)(=O)CCNC(=O)Cc2ccc(Cl)cc2)cc1`, the “hERG current change (%, negative = inhibition) at 10uM” value is listed as -8.99%.
Take `CCOC(=O)c1ccc(-n2ccnc2)c(NC(=O)c2cccc(Br)c2)c1`: the “hERG current change (%, negative = inhibition) at 10uM” value is recorded as -42.1%.
`CCC(=O)N1CCN(c2ccc(NC(=O)c3ccc(Br)o3)cc2)CC1`: the “hERG current change (%, negative = inhibition) at 10uM” value was -26.9%.
With `COc1ccc(C(=O)Nn2cnnc2)cc1` the figure was 2.42%; with `COc1cc(/C=N/NC(=O)c2cc(O)cc(O)c2)ccc1OC(=O)c1ccccc1`, 25.2%; with `COc1ccc(OC)c(C(=O)c2ccccc2)c1`, 2.49%.
The value for `S=C(NCCCN1CCOCC1)N1CCOCC1` was 10.7%; that for `CN(C(=O)Nc1cccc(C(F)(F)F)c1)C1CCCCC1` was 14.7%; that for `COC(=O)c1ccc(NC(=O)c2sc3nc(-c4ccccc4)cn3c2C)cc1` was 8.42%.
For the compound `Cc1ccc(Sc2ncccc2C(N)=O)cc1`, the “hERG current change (%, negative = inhibition) at 10uM” value came out at 2.36%.
`COc1ccc(CN2CCN(C(=O)c3cc(-c4cccnc4)nc4ccc(Cl)cc34)CC2)c(OC)c1OC.Cl`: the “hERG current change (%, negative = inhibition) at 10uM” value is reported as -33.5%.
With `CCOC(=O)C1CCCN(S(=O)(=O)c2cc(OCC(N)=O)c(C)cc2Cl)C1` (centres unmarked), the “hERG current change (%, negative = inhibition) at 10uM” value stood at 6.83%.
As for `COc1ccc2c(=O)cc(C(=O)O)oc2c1`, the “hERG current change (%, negative = inhibition) at 10uM” value is on record as 8.91%.
With `COc1ccc(NC(=O)[C@@H](NC(N)=O)C(C)C)cc1Cl` the figure was 21.1%.
Turning to `O=C(CCc1nc(-c2cccs2)no1)Nc1cnc2ccccc2c1`, the “hERG current change (%, negative = inhibition) at 10uM” value was 40.4%.
The value for `O=C(NCC1CCCO1)C1CCN(C2CCN(C(=O)Cc3ccsc3)CC2)CC1` (centres unmarked) was 6.82%; that for `Cc1ccc(C)c(OCCC(=O)NCCc2ccc(F)cc2)c1` was -27.2%.
The value for `COc1ccc2oc(C(=O)N3CCN(S(=O)(=O)c4cccc([N+](=O)[O-])c4)CC3)c(C)c2c1` was 4.4%; that for `COc1ccc(C2=C/C(=C\c3ccccc3OC(C)=O)C(=O)O2)cc1` was 17.6%; that for `Cc1c(C(=O)N2CC(C)OC(C)C2)sc2nc(-c3ccc(F)cc3)cn12` (centres unmarked) was -38.4%.

For the origin of these results see PMC4336329 (PLoS ONE, 2015).
